Experimental data from paper PMC5892938.
Some of the results follow. Construct or isoform of the protein are uncertain.

Each sequence was assayed against GST-SBP-ILF3 (Homo sapiens) (UniProt Q12906) (assay: targeted RNA Bind-n-Seq). Settings: RBNS binding buffer: 25 mM Tris pH 7.5, 150 mM KCl, 3 mM MgCl2, 0.1% Tween, 0.5 mg/mL BSA, 1 mM DTT; 27 nM protein, 750 pM RNA pool; temperature not stated; high values mean tight binding; sequences stand for … in GGGUAAAAGCGAGGUGAA…CGGGACAAGUAUUAUGGG.

**Q.** How did the binding signal (log2 fold change) turn out when “GUUGGUGGUGUUGGUCCCUAACACCGCCAG [gtspaired]” was run?
**A.** -0.8

**Q.** How did the binding signal (log2 fold change) turn out when “UUUUUUUUUUGAGAGGGCAACCCUCUUCUA [tttttgagapaired]” was run?
**A.** 0.302

**Q.** “UUUUUUUUUUGAGACGGAAACCGUUUCCUA [tttttgagapaired]” was tested. Which binding signal (log2 fold change) did it give?
**A.** 0.143

**Q.** “UUUUUUUUUUGAGACGGUUUCCGUCUUCUG [tttttgagapaired]” was tested. Which binding signal (log2 fold change) did it give?
**A.** 0.411

**Q.** How did the binding signal (log2 fold change) turn out when “UUUUUUUUUUGAGACGGAAACUGUCUUCUA [tttttgagapaired]” was run?
**A.** 0.607

**Q.** With “GUGUGUGGUGUUGGUAUCUAACACCAUACG [gtspaired]” as the sequence, how does the binding signal (log2 fold change) read?
**A.** -0.535

**Q.** With “UUUUUUUUUUGAGAUCGAUACGAUCUCCUG [tttttgagapaired]” as the sequence, how does the binding signal (log2 fold change) read?
**A.** 0.25

**Q.** Which binding signal (log2 fold change) does the source give for “GUUGUGUGUGUUGGAAUCUAACACACGCAG [gtspaired]” here?
**A.** -0.666

**Q.** For “UUUUUUUUUUGAGACGGGGGCUGUCUCCGG [tttttgagapaired]”, which binding signal (log2 fold change) is on record?
**A.** 0.812

**Q.** With “UUUUUUUUUUGAGAGGGGAACCCUUUCCAG [tttttgagapaired]” as the sequence, how does the binding signal (log2 fold change) read?
**A.** 0.186

**Q.** For “UUUUUUUUUUGAGAGGGGAACCCUUUCCGG [tttttgagapaired]”, which binding signal (log2 fold change) is on record?
**A.** 0.314

**Q.** With “GGUUGUGGUGUUGGUCCCUAACACCACGAC [gtspaired]” as the sequence, how does the binding signal (log2 fold change) read?
**A.** -0.145

**Q.** Which binding signal (log2 fold change) does the source give for “UUUUUUUUUUGAGACGGAGUCUGUUUCCAG [tttttgagapaired]” here?
**A.** 0.485

**Q.** With “UUUUUUUUUUGAGACGGGUACCGUCUUCUA [tttttgagapaired]” as the sequence, how does the binding signal (log2 fold change) read?
**A.** 0.419

**Q.** How did the binding signal (log2 fold change) turn out when “UUUUUUUUUUGAGAGCGGUACGUUCUCCUA [tttttgagapaired]” was run?
**A.** 0.251

**Q.** For “UUUUUUUUUUGAGACUGGAGCAGUUUUCUA [tttttgagapaired]”, which binding signal (log2 fold change) is on record?
**A.** 0.373

**Q.** With “GGUGGUUGUGUUGGUGUCUAACACAAUCGC [gtspaired]” as the sequence, how does the binding signal (log2 fold change) read?
**A.** -0.791

**Q.** “UUUUUUUUUUGAGACGGACACUGUCUUCUA [tttttgagapaired]” was tested. Which binding signal (log2 fold change) did it give?
**A.** 0.468

**Q.** With “UUUUUUUUUUGAGAGGGAGGCCCUCUCCGG [tttttgagapaired]” as the sequence, how does the binding signal (log2 fold change) read?
**A.** 0.471

**Q.** How did the binding signal (log2 fold change) turn out when “UUUUUUUUUUGAGAGUGCGGCAUUCUCCUA [tttttgagapaired]” was run?
**A.** 0.383

**Q.** With “GUGGUGUGUGUUGGAACCUAACACACAUCA [gtspaired]” as the sequence, how does the binding signal (log2 fold change) read?
**A.** -0.732

**Q.** Which binding signal (log2 fold change) does the source give for “UUUUUUUUUUGAGACGGUCCCCGUCUCCAG [tttttgagapaired]” here?
**A.** 0.852

**Q.** How did the binding signal (log2 fold change) turn out when “GUGGUGUGUGUUGGAAUCUAACACACGCCG [gtspaired]” was run?
**A.** -0.385

**Q.** “UUUUUUUUUUGAGACGGGUACCGUCUUCUG [tttttgagapaired]” was tested. Which binding signal (log2 fold change) did it give?
**A.** 0.589

**Q.** “UUUUUUUUUUGAGACGGGGACCGUCUCCGG [tttttgagapaired]” was tested. Which binding signal (log2 fold change) did it give?
**A.** 0.573

**Q.** How did the binding signal (log2 fold change) turn out when “GUGUGUUGUGUUGGAACCUAACACAGCACA [gtspaired]” was run?
**A.** -0.297

**Q.** “UUUUUUUUUUGAGACUGCGACAGUCUCCUG [tttttgagapaired]” was tested. Which binding signal (log2 fold change) did it give?
**A.** 0.505

**Q.** With “GGUGUUGGUGUUGGCGUCUAACACCGACGC [gtspaired]” as the sequence, how does the binding signal (log2 fold change) read?
**A.** -0.74
